# Source: the supplement of paper PMC8728848
# The list shows a part of the results.
# B1: Clec49 (Caenorhabditis elegans) (protein)
# chain: MTRLTLLLFGLLGAATAQTCNTGGIYNEQFNRCYQYFTAPAQFSFAEQQCNLLGGHLASVQNGQENALLQSNAANSFKRSNYSDYWIGATDLETSGTWKWTDPSVTFDYSNWQLGEPQSGSDCAIQDKGDGTWSAIGCTSYRPYVCVTPVIMTATCPPITTPIPTTCPTPAPCPIKQCVPSCDQGWTYFSPTDFCYRVYHGEKFNDAEASCVLLGGHLASIHSLTENTFVNNIASCGIKEGKYEHLAWIGMRKVGQDWVWTDGTPSDYFNWAPKQPDNPKKELCVQTAPDLSHDKWYENWNNLECNEVMRAYICKKASIHN
# Legend:
# Assay in all cases: glycan array binding signal (z-score within array); higher = stronger binding
# Settings in all cases: glycan notation: IUPAC condensed, linker removed
# [1] = molecular target: GlcNAc(b1-2)[GlcNAc(b1-4)]Man(a1-3)[GlcNAc(b1-4)][GlcNAc(b1-2)[GlcNAc(b1-6)]Man(a1-6)]Man(b1-4)GlcNAc(b1-4)GlcNAc
# In short: (§1)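 The binding signal is a Z-score computed within each array and averaged over linkers. Arrays of the same protein sequence at different concentrations or buffers were also averaged together. Data originate from 3228 arrays in the Consortium for Functional Glycomics database, kept only where the protein sequence was available.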
# [2] = molecular target: GlcNAc(b1-2)[GlcNAc(b1-4)]Man(a1-3)[GlcNAc(b1-4)][GlcNAc(b1-2)[GlcNAc(b1-6)]Man(a1-6)]Man(b1-4)GlcNAc(b1-4)[Fuc(a1-6)]GlcNAc
# In short: as §1
# [3] = molecular target: GlcNAc(b1-2)[GlcNAc(b1-6)]Man(a1-6)[GlcNAc(b1-2)Man(a1-3)]Man(b1-4)GlcNAc(b1-4)GlcNAc
# In short: as §1
# [4] = molecular target: GlcNAc(b1-2)[GlcNAc(b1-6)]Man(a1-6)[GlcNAc(b1-2)Man(a1-3)]Man(b1-4)GlcNAc(b1-4)[Fuc(a1-6)]GlcNAc
# In short: as §1
# [5] = molecular target: GlcNAc(b1-2)[GlcNAc(b1-6)]Man(a1-6)[GlcNAc(b1-4)][GlcNAc(b1-2)Man(a1-3)]Man(b1-4)GlcNAc(b1-4)GlcNAc
# In short: as §1
# [6] = molecular target: GlcNAc(b1-3)Fuc
# In short: as §1
# [7] = molecular target: GlcNAc(b1-3)Gal
# In short: as §1
# [8] = molecular target: GlcNAc(b1-3)Gal(b1-3)GalNAc
# In short: as §1
# [9] = molecular target: GlcNAc(b1-3)Gal(b1-4)Glc
# In short: as §1
# [10] = molecular target: GlcNAc(b1-3)Gal(b1-4)GlcNAc
# In short: as §1
# [11] = molecular target: GlcNAc(b1-3)Gal(b1-4)GlcNAc(b1-2)Man(a1-3)[GlcNAc(b1-3)Gal(b1-4)GlcNAc(b1-2)Man(a1-6)]Man(b1-4)GlcNAc(b1-4)GlcNAc
# In short: as §1
# [12] = molecular target: GlcNAc(b1-3)Gal(b1-4)GlcNAc(b1-2)Man(a1-3)[GlcNAc(b1-3)Gal(b1-4)GlcNAc(b1-2)Man(a1-6)]Man(b1-4)GlcNAc(b1-4)[Fuc(a1-6)]GlcNAc
# In short: as §1
# [13] = molecular target: GlcNAc(b1-3)Gal(b1-4)GlcNAc(b1-2)[GlcNAc(b1-3)Gal(b1-4)GlcNAc(b1-6)]Man(a1-6)[GlcNAc(b1-3)Gal(b1-4)GlcNAc(b1-2)Man(a1-3)]Man(b1-4)GlcNAc(b1-4)GlcNAc
# In short: as §1
# [14] = molecular target: GlcNAc(b1-3)Gal(b1-4)GlcNAc(b1-3)Gal(b1-4)GlcNAc
# In short: as §1
# [15] = molecular target: GlcNAc(b1-3)Gal(b1-4)GlcNAc(b1-3)Gal(b1-4)GlcNAc(b1-2)Man(a1-3)[GlcNAc(b1-3)Gal(b1-4)GlcNAc(b1-3)Gal(b1-4)GlcNAc(b1-2)Man(a1-6)]Man(b1-4)GlcNAc(b1-4)GlcNAc
# In short: as §1
# [16] = molecular target: GlcNAc(b1-3)Gal(b1-4)GlcNAc(b1-3)Gal(b1-4)GlcNAc(b1-2)Man(a1-3)[GlcNAc(b1-3)Gal(b1-4)GlcNAc(b1-3)Gal(b1-4)GlcNAc(b1-2)Man(a1-6)]Man(b1-4)GlcNAc(b1-4)[Fuc(a1-6)]GlcNAc
# In short: as §1
# [17] = molecular target: GlcNAc(b1-3)Gal(b1-4)GlcNAc(b1-3)Gal(b1-4)GlcNAc(b1-2)[GlcNAc(b1-3)Gal(b1-4)GlcNAc(b1-3)Gal(b1-4)GlcNAc(b1-6)]Man(a1-6)[GlcNAc(b1-3)Gal(b1-4)GlcNAc(b1-3)Gal(b1-4)GlcNAc(b1-2)Man(a1-3)]Man(b1-4)GlcNAc(b1-4)[Fuc(a1-6)]GlcNAc
# In short: as §1
# [18] = molecular target: GlcNAc(b1-3)Gal(b1-4)GlcNAc(b1-3)Gal(b1-4)GlcNAc(b1-3)Gal(b1-4)GlcNAc(b1-2)Man(a1-3)[GlcNAc(b1-3)Gal(b1-4)GlcNAc(b1-3)Gal(b1-4)GlcNAc(b1-3)Gal(b1-4)GlcNAc(b1-2)Man(a1-6)]Man(b1-4)GlcNAc(b1-4)GlcNAc
# In short: as §1
# [19] = molecular target: GlcNAc(b1-3)Gal(b1-4)GlcNAc(b1-3)Gal(b1-4)GlcNAc(b1-3)Gal(b1-4)GlcNAc(b1-2)Man(a1-3)[GlcNAc(b1-3)Gal(b1-4)GlcNAc(b1-3)Gal(b1-4)GlcNAc(b1-3)Gal(b1-4)GlcNAc(b1-2)Man(a1-6)]Man(b1-4)GlcNAc(b1-4)[Fuc(a1-6)]GlcNAc
# In short: as §1
# [20] = molecular target: GlcNAc(b1-3)Gal(b1-4)GlcNAc(b1-3)Gal(b1-4)GlcNAc(b1-3)Gal(b1-4)GlcNAc(b1-2)[GlcNAc(b1-3)Gal(b1-4)GlcNAc(b1-3)Gal(b1-4)GlcNAc(b1-3)Gal(b1-4)GlcNAc(b1-6)]Man(a1-6)[GlcNAc(b1-3)Gal(b1-4)GlcNAc(b1-3)Gal(b1-4)GlcNAc(b1-3)Gal(b1-4)GlcNAc(b1-2)Man(a1-3)]Man(b1-4)GlcNAc(b1-4)[Fuc(a1-6)]GlcNAc
# In short: as §1
# [21] = molecular target: GlcNAc(b1-3)Gal(b1-4)GlcNAc(b1-3)Gal(b1-4)GlcNAc(b1-3)Gal(b1-4)GlcNAc(b1-3)Gal(b1-4)GlcNAc(b1-2)Man(a1-3)[GlcNAc(b1-3)Gal(b1-4)GlcNAc(b1-3)Gal(b1-4)GlcNAc(b1-3)Gal(b1-4)GlcNAc(b1-3)Gal(b1-4)GlcNAc(b1-2)Man(a1-6)]Man(b1-4)GlcNAc(b1-4)GlcNAc
# In short: as §1
# [22] = molecular target: GlcNAc(b1-3)Gal(b1-4)GlcNAc(b1-3)Gal(b1-4)GlcNAc(b1-3)Gal(b1-4)GlcNAc(b1-3)Gal(b1-4)GlcNAc(b1-2)Man(a1-3)[GlcNAc(b1-3)Gal(b1-4)GlcNAc(b1-3)Gal(b1-4)GlcNAc(b1-3)Gal(b1-4)GlcNAc(b1-3)Gal(b1-4)GlcNAc(b1-2)Man(a1-6)]Man(b1-4)GlcNAc(b1-4)[Fuc(a1-6)]GlcNAc
# In short: as §1
# [23] = molecular target: GlcNAc(b1-3)Gal(b1-4)GlcNAc(b1-3)Gal(b1-4)GlcNAc(b1-3)Gal(b1-4)GlcNAc(b1-3)Gal(b1-4)GlcNAc(b1-2)[GlcNAc(b1-3)Gal(b1-4)GlcNAc(b1-3)Gal(b1-4)GlcNAc(b1-3)Gal(b1-4)GlcNAc(b1-3)Gal(b1-4)GlcNAc(b1-6)]Man(a1-6)[GlcNAc(b1-3)Gal(b1-4)GlcNAc(b1-3)Gal(b1-4)GlcNAc(b1-3)Gal(b1-4)GlcNAc(b1-3)Gal(b1-4)GlcNAc(b1-2)Man(a1-3)]Man(b1-4)GlcNAc(b1-4)[Fuc(a1-6)]GlcNAc
# In short: as §1
# [24] = molecular target: GlcNAc(b1-3)Gal(b1-4)GlcNAc(b1-3)Gal(b1-4)GlcNAc(b1-3)GalNAc
# In short: as §1
# [25] = molecular target: GlcNAc(b1-3)Gal(b1-4)GlcNAc(b1-3)GalNAc
# In short: as §1
# [26] = molecular target: GlcNAc(b1-3)Gal(b1-4)GlcNAc(b1-3)[GlcNAc(b1-3)Gal(b1-4)GlcNAc(b1-3)]GalNAc
# In short: as §1
# [27] = molecular target: GlcNAc(b1-3)Gal(b1-4)GlcNAc(b1-6)[Gal(b1-3)]GalNAc
# In short: as §1
# [28] = molecular target: GlcNAc(b1-3)Gal(b1-4)GlcNAc(b1-6)[GlcNAc(b1-3)Gal(b1-3)]GalNAc
# In short: as §1
# [29] = molecular target: GlcNAc(b1-3)Gal(b1-4)GlcNAc(b1-6)[GlcNAc(b1-3)]Gal(b1-4)GlcNAc
# In short: as §1
# [30] = molecular target: GlcNAc(b1-3)GalNAc
# In short: as §1
# [31] = molecular target: GlcNAc(b1-3)Man
# In short: as §1
# [32] = molecular target: GlcNAc(b1-3)[GlcNAc(b1-4)][GlcNAc(b1-6)]GlcNAc
# In short: as §1
# [33] = molecular target: GlcNAc(b1-3)[GlcNAc(b1-6)]Gal(b1-4)GlcNAc
# In short: as §1
# [34] = molecular target: GlcNAc(b1-3)[GlcNAc(b1-6)]GalNAc
# In short: as §1
# [35] = molecular target: GlcNAc(b1-4)Gal(b1-4)GlcNAc
# In short: as §1
# [36] = molecular target: GlcNAc(b1-4)GlcNAc
# In short: as §1
# [37] = molecular target: GlcNAc(b1-4)GlcNAc(b1-4)GlcNAc
# In short: as §1
# [38] = molecular target: GlcNAc(b1-4)GlcNAc(b1-4)GlcNAc(b1-4)GlcNAc(b1-4)GlcNAc
# In short: as §1
binder,measurement,setting,value
B1,glycan array binding signal (z-score),[1],-0.524
same,glycan array binding signal (z-score),[2],-0.199
same,glycan array binding signal (z-score),[3],-0.538
same,glycan array binding signal (z-score),[4],0.48
same,glycan array binding signal (z-score),[5],-0.535
same,glycan array binding signal (z-score),[6],0.199
same,glycan array binding signal (z-score),[7],-0.154
same,glycan array binding signal (z-score),[8],-0.193
same,glycan array binding signal (z-score),[9],-0.208
same,glycan array binding signal (z-score),[10],-0.356
same,glycan array binding signal (z-score),[11],0.144
same,glycan array binding signal (z-score),[12],0.489
same,glycan array binding signal (z-score),[13],0.43
same,glycan array binding signal (z-score),[14],-0.387
same,glycan array binding signal (z-score),[15],1.3
same,glycan array binding signal (z-score),[16],0.581
same,glycan array binding signal (z-score),[17],0.206
same,glycan array binding signal (z-score),[18],-0.295
same,glycan array binding signal (z-score),[19],-0.119
same,glycan array binding signal (z-score),[20],0.571
same,glycan array binding signal (z-score),[21],-0.429
same,glycan array binding signal (z-score),[22],0.13
same,glycan array binding signal (z-score),[23],0.694
same,glycan array binding signal (z-score),[24],-0.473
same,glycan array binding signal (z-score),[25],1.09
same,glycan array binding signal (z-score),[26],0.912
same,glycan array binding signal (z-score),[27],0.25
same,glycan array binding signal (z-score),[28],-0.572
same,glycan array binding signal (z-score),[29],-0.374
same,glycan array binding signal (z-score),[30],-0.399
same,glycan array binding signal (z-score),[31],-0.366
same,glycan array binding signal (z-score),[32],0.48
same,glycan array binding signal (z-score),[33],-0.239
same,glycan array binding signal (z-score),[34],-0.61
same,glycan array binding signal (z-score),[35],0.877
same,glycan array binding signal (z-score),[36],-0.318
same,glycan array binding signal (z-score),[37],-0.108
same,glycan array binding signal (z-score),[38],-0.408
